The source gives no read counts; variants with many changes may rest on few reads.
B1: LINE1-mini (parent)
chain: GGCAGAGCUCAACACAGCGUGGCAAAGUGGCUGUGGCUAGACUGCC

Variants of: B1
Test: self-cleavage, relative activity (ratio to wild type); higher = more cleavage; in vitro, sequencing; the parent is a self-cleaving ribozyme

Variant	self-cleavage
GGCAGAGCUCAACACAGCGUGGCAUAGUGGGUGUGGGUAGACUGCC [A25U C31G C37G]	0.03
GGCAGAGCUCAACCCAUCGUGGCAAAGUGGCUGUGGCUACACUGCC [A14C G17U G40C]	0
GGCAGACCUCAACACAGUGUGGCAAAGUGGCUGUGGCUAGAUUGCU [G7C C18U C42U C46U]	0.13
AGCAGAGCUCAACACAGCGUGGCAAAGGGGCUGUUGCUAGACUGCU [G1A U28G G35U C46U]	0.09
GGCAGAGCUCAGAACAGCGAGGCUAAAGGGCUUUGGCUAGAUUGCC [A12G C13A U20A A24U G27A U28G G33U C42U]	0.09
CGCAGAGCUCAACACAGCUUGGCAAAUUGGCUGUGGCUAGACUGAC [G1C G19U G27U C45A]	0.02
GGCAGAGCUUAACACAGCGUGGCAAAGUGGGUGUGGCUAUACUGCC [C10U C31G G40U]	0.05
GGCAGAGCUCAACAUAGCGUGGCAAAUUGACUGUGGCUAGAUUGCC [C15U G27U G30A C42U]	0.04
GGCAGAGCUCAACCUAGCGUGCCAAAGUGGCUGUGGUUAGACUGCC [A14C C15U G22C C37U]	0.03
GGCAGAGCUGAACACAGGGUGGCAAAGUGGCUAUGGCUAGACUGCC [C10G C18G G33A]	0.01
GGAAGAGCUCAACCCAGCGUGGCAAAGUGGCUGUGGCUAGACAGCC [C3A A14C U43A]	0.08
GGCAAAGCUCAACUCAGCGUGGCAAAGUGUCUGUGGCUAGACUGCC [G5A A14U G30U]	0.06
AGCAGCGCUCAAAACAGCGUGGCAAAGUGGCUGUGGUUAGAAUGCC [G1A A6C C13A C37U C42A]	0.04
GGCAGAGCUCAACACAGCAUUACAAAGUGGAUGUGGUUAGAUUGCC [G19A G21U G22A C31A C37U C42U]	0.04
GCCAGAGCUCACCACAUCGUGGCAAAGUGGCUGUGGCUAGACUGCC [G2C A12C G17U]	0.07
GGCAGUGCGCAACACAGCGUGGAAGAGUGGCUGUGGCUAGACUGCC [A6U U9G C23A A25G]	0.14
GGCAGAGGUCAACACAGCGUGGCAAAUAGGCUGUGGCUAGACUGCC [C8G G27U U28A]	0.08
GGCAGAGCUAAACACAACGUGGCAAAGUGGCUUUGGCUAGACUGCC [C10A G17A G33U]	0.01
GGCGGAGCUCAACACAGAGUGGCAAAGUGGCUGGGGCUAGACUGCC [A4G C18A U34G]	0.12

Variant	self-cleavage
GGCAGACCUCAACACAGCGUGGCAAAGUGACUGUGGCUAGAAUUCC [G7C G30A C42A G44U]	0.1
GGCAGAGCUCAACACACCGUCCCAAGGUUGCUGUGGCUAGACUGCC [G17C G21C G22C A26G G29U]	0.06
GGCAGAUUUCAAAACAGCGUGACCAAGUGGCUGUGCCUAGACUGCC [G7U C8U C13A G22A A24C G36C]	0.04
GGCAGUGCUCAACACAGCGUGGCAAAGGGGCUGUUGCUAGACGGCC [A6U U28G G35U U43G]	0.01
GGCAGUGCUCAACACAGCGUGGCAUAGGGGCUGUGGCUAGACUCCC [A6U A25U U28G G44C]	0.63
GGCAGAGCUCAACACCGCGUGGCAAAGUGGCUGAGGAUGGACUGCC [A16C U34A C37A A39G]	0.04
AGCAGAGCUCAACACAGCGUGGCAAAGUGGCCGUGGCUAGCCUGCC [G1A U32C A41C]	0.09
GGCAGGGCUCAACACAGCGUGACAUAGUGGCGGUAGAUAGACUGCC [A6G G22A A25U U32G G35A C37A]	0.06
GGCAGAGCUCAACACAGCGUUGAAAAGUGGCCUUUGCUAGACUGCC [G21U C23A U32C G33U G35U]	0.01
AUCAGAGCUCAACACAGCGUGGCAAAGUGGCGGUGGCUAGACUGAC [G1A G2U U32G C45A]	0.09
GCCUGAGCUCAACAGAGCGUGGCAAAGUGCCUGUGGCUAGACAGCC [G2C A4U C15G G30C U43A]	0.01
GCCACAGCUCAACACAGCGUGGCAAAGAGGCUGUGGCUAGACUGCC [G2C G5C U28A]	0.04
GGCGGAGCUCAACACAGCGUGGCAAUGUGGGUGUGGGUAGACUGCC [A4G A26U C31G C37G]	0.03
GGCGGAGCUCAACAUAGCGUGGCAAAGUGGCUGUCGCUAGACUGCC [A4G C15U G35C]	0.04
GUCAGAGCUCAACACAGCGUGGCAAAGUGGCUGUUGCUAGGCUGCC [G2U G35U A41G]	0.02
GGCAGACCUCAACAGAGUGUGGCAAAGUGGCUGUGGCUAGACUGCC [G7C C15G C18U]	0.03
GGCAGAGCUCAACACAGCGUGGUAUAGUGGCUUUGGCUAGACUCCC [C23U A25U G33U G44C]	0.04
GGAAGAGCUCAACGCACCGUGGCAAAGUGGCUGUGGCUAGACUGCC [C3A A14G G17C]	0.32
GGCAGAGCUCAACACUGCGUGGCUAAGUGGCUGUGGAUAGACUGCC [A16U A24U C37A]	0.1

Variant	self-cleavage
GGCAAACCUCAACACAGCGUGGCAAAGUGGCUGAGGCUAGACUGGC [G5A G7C U34A C45G]	0.05
GGCAGGGCGCGACACAGCGUGGUAAAGUGGCUGUGGCUAGACUGCC [A6G U9G A11G C23U]	0.02
GGCAGAGCUCAACACAGCGUGGCAAAGUGGCUGUUGCUUGACUGAC [G35U A39U C45A]	0.04
GGCAGAACUCGACACAGCGUGGCAAUGUAGCUGUGGCUAGACUGCU [G7A A11G A26U G29A C46U]	0.03
GGCAUACCUAAACACAGCGUGGUAAAGUGGCUGUGGCUAGACUGCC [G5U G7C C10A C23U]	0.03
GGCAUAGAUCAACACAGCGUGGCAAAGUGGCUCUGGCUAGACUGCC [G5U C8A G33C]	0.15
GGCAGACCUCAACACAGCGUGGCAAAGCGGCUGUGUCUAGACUGCC [G7C U28C G36U]	0.01
GGCAGAGCACAACACAGCCUGGCAAAGUGGAUGUUGCUAUACUGCC [U9A G19C C31A G35U G40U]	0.04
GGCAGAGCUCAACACAGCGUGGCAAACUGGUUGUGGACAGACUGCC [G27C C31U C37A U38C]	0.02
GGCAGAACUCACCACAGCGUGGCAAAGUGGCCGUGCCUAGACUGCC [G7A A12C U32C G36C]	0.04
GGCAGAGCACAACACGGCGUGGCAAAGUGGCUGUCGCUACACUGCC [U9A A16G G35C G40C]	0.02
GGUUGAGCUCAACACACCGUGGCAAAGUGGCUGUGGCUAGACUGCC [C3U A4U G17C]	0.04
GGCAGAACUCAACACAGUGAGGCAAAGUGACUGUGGAUAGACUGCC [G7A C18U U20A G30A C37A]	0.06
GGCAGAGCUCAACACAGCGUGGCAAUGUUGCUGUGGCUAGAGUACC [A26U G29U C42G G44A]	0.02
GGCAGAUCUCAACACAGCGUGGCCAAGUGGCUGGGGCUAGACUGCC [G7U A24C U34G]	0.12
GGCAUACCUCAAAACAGCGUGGCAAAGUGGCUGUGGCUAGACUGCA [G5U G7C C13A C46A]	0
GGCAGAGCUCAACACAGCGAGGCAAAGUGGCUGUUUCUAGACUGCC [U20A G35U G36U]	0.05
UGCAUAACUCAACACAGCGUGGCAAAGUGUCUGUGGCUAGACUGCC [G1U G5U G7A G30U]	0.37
